62 molecules from the supplement of paper PMC9446081 can be followed below.

Molecules are shown by their SMILES. The campaign covered roughly 39,000 compounds. About 220 (0.56%) showed activity. This is one part of the list.
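Further: static incubation at 37 °C against the wild-type strain, values averaged over two biological replicates.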

The experiment has as its system Escherichia coli K-12 BW25113. Description: relative growth (OD600 normalised to plate interquartile mean) (fraction); higher = less growth inhibition, active = 0.2 or less. The note with it: 50 µM; LB; incubation time: overnight (16-24 h).
Take `C[C@H]1CN([C@@H](C)CO)C(=O)CCCn2nncc2CO[C@H]1CN(C)S(=O)(=O)c1ccc(-c2ccccc2)cc1`: the relative growth is inactive: 1.05.

Take `CO[C@@H]1CN(C)C(=O)c2ccc(NC(=O)C3CCOCC3)cc2OC[C@@H](C)N(C(=O)C2CCOCC2)C[C@H]1C`: the relative growth is inactive: 1.

In the case of `COc1ccccc1S(=O)(=O)N(C)C[C@H]1Oc2cc(C#CCC(C)C)ccc2S(=O)(=O)N([C@@H](C)CO)C[C@H]1C`, the relative growth was inactive: 0.999.

In the case of `Nc1nnc([C@H]2CCCO2)o1`, the relative growth is inactive: 0.99.

As for `CN(C)/N=N/c1nc[nH]c1C(N)=O`, the relative growth is inactive: 0.913.

Take `COc1ccc(NC(=O)Nc2ccc3c(c2)C(=O)N([C@H](C)CO)C[C@H](C)[C@@H](CN(C)Cc2ccc(C(F)(F)F)cc2)OCCCC[C@H](C)O3)cc1`: the relative growth is inactive: 0.938.

As to `Cc1ccc(=O)n(-c2ccccc2)c1`, the relative growth is inactive: 0.973.

As for `Cc1c(-c2ccnn2C)cc(C(=O)NCc2ccc(S(C)(=O)=O)cn2)c(=O)n1-c1cccc(C(F)(F)F)c1`, the relative growth is inactive: 0.987.

Consider `COc1ccc(CN(C)C[C@@H]2OCCCC[C@H](C)Oc3ccc(NC(=O)Nc4cccc5ccccc45)cc3C(=O)N([C@H](C)CO)C[C@H]2C)cc1`, for which the relative growth is inactive: 0.974.

As for `C[C@H]1CN([C@@H](C)CO)C(=O)c2c(c3ccccc3n2C)-c2ccccc2CO[C@@H]1CN(C)C(=O)Nc1cccc(C(F)(F)F)c1`, the relative growth was inactive: 1.03.

Regarding `Cc1noc(C)c1S(=O)(=O)N(C)C[C@@H]1Oc2ccc(NC(=O)C3CCCCC3)cc2CC(=O)N([C@@H](C)CO)C[C@@H]1C`, the relative growth is inactive: 1.02.

`C=CC[C@H](CC(=O)NCCO)C(=O)NC[C@@H](OC(=O)[C@@H](CC=C)CC(=O)OC(C)(C)C)c1ccccc1`: the relative growth was inactive: 0.974.

Take `CC(C)n1c(=S)[nH]c2ccccc21`: the relative growth is inactive: 1.01.

As for `Cc1ccc(S(=O)(=O)N(C)C[C@@H]2OCCCC[C@@H](C)Oc3ccc(NC(=O)Nc4ccc5c(c4)OCO5)cc3C(=O)N([C@@H](C)CO)C[C@H]2C)cc1`, the relative growth was inactive: 1.03.

As to `COc1ccc(S(=O)(=O)N(C)C[C@@H]2Oc3ccc(NC(=O)NC(C)C)cc3C(=O)N([C@@H](C)CO)C[C@@H]2C)cc1`, the relative growth was inactive: 0.996.

As to `COc1ccc(CCN(C)CCCC(C#N)(c2ccc(OC)c(OC)c2)C(C)C)cc1OC.Cl` (configuration not stated), the relative growth was inactive: 1.04.

`C[C@H](CO)N1C[C@H](C)[C@H](CN(C)C(=O)Nc2ccccc2)Oc2ccc(NS(=O)(=O)c3cn(C)cn3)cc2C1=O`: the relative growth was inactive: 0.972.

For the molecule `C[C@@H]1CN([C@@H](C)CO)C(=O)c2cc(NC(=O)c3ccccc3)ccc2O[C@@H](C)CCCCO[C@H]1CN(C)S(=O)(=O)c1ccc(Cl)cc1`, the relative growth is inactive: 1.01.

`CO[C@@H](CN(C)C(=O)Nc1ccc(C(F)(F)F)cc1)[C@@H](C)CN(Cc1ccccc1Cl)[C@@H](C)CO`: the relative growth is inactive: 1.03.

Regarding `O=C(/C=C/c1ccc(O)c(O)c1)O[C@H]1[C@H](O)C[C@](O)(C(=O)O)C[C@H]1OC(=O)/C=C/c1ccc(O)c(O)c1`, the relative growth was inactive: 0.989.

On to `C[C@H](CO)N1C[C@H](C)[C@@H](CN(C)Cc2ccncc2)OCCCC[C@H](C)Oc2ccc(NC(=O)Nc3ccccc3)cc2C1=O`, for which the relative growth is inactive: 1.01.

Regarding `Cc1noc(C)c1NC(=O)N(C)C[C@H]1Oc2ccc(NC(=O)c3ccncc3)cc2C(=O)N([C@@H](C)CO)C[C@@H]1C`, the relative growth was inactive: 1.

Regarding `O=C(O)C=Cc1ccc(O)c(O)c1`, the relative growth is inactive: 0.98.

Regarding `C[C@H](CO)N1C[C@H](C)[C@@H](CN(C)S(=O)(=O)c2ccc(Cl)cc2)OCCCC[C@H](C)Oc2ccc(NC(=O)c3ccncc3)cc2C1=O`, the relative growth was inactive: 1.01.

`C[C@@H]1CCCCO[C@H](CN(C)S(=O)(=O)c2ccc(F)cc2)[C@H](C)CN([C@@H](C)CO)C(=O)c2cc(NC(=O)CCC(F)(F)F)ccc2O1`: the relative growth was inactive: 1.03.

Take `Nc1ccc(Oc2ccc3ccccc3c2Cl)c(Cl)c1`: the relative growth was inactive: 0.974.

For `COc1ccc(S(=O)(=O)N(C)C[C@@H]2Oc3ncc(C#Cc4ccc(F)cc4)cc3C(=O)N([C@H](C)CO)C[C@@H]2C)cc1`, the relative growth is inactive: 1.05.

With `CCOc1ccc([C@@H](C)N)cc1OCC`, the relative growth was inactive: 0.981.

`O=C(CCCCCC(=O)Nc1ccccc1O)N/N=C/[C@H](O)[C@@H](O)[C@H](O)[C@H](O)CO`: the relative growth was inactive: 1.

Turning to `C[C@H]1CN([C@@H](C)CO)C(=O)Cc2cc(NC(=O)C3CCCCC3)ccc2O[C@@H]1CN(C)Cc1ccc(Cl)c(Cl)c1`, the relative growth is inactive: 0.968.

Turning to `C[C@H](CO)N1C[C@H](C)[C@H](CN(C)Cc2ccc(C(F)(F)F)cc2)Oc2ccc(NC(=O)CCC(F)(F)F)cc2C1=O`, the relative growth was inactive: 1.02.

In the case of `C[C@H]1CN([C@@H](C)CO)S(=O)(=O)c2ccc(-c3cncnc3)cc2O[C@H]1CN(C)C(=O)c1cccc(F)c1`, the relative growth is inactive: 1.01.

Regarding `C[C@@H]1CN([C@H](C)CO)S(=O)(=O)c2ccc(C#Cc3ccccc3)cc2O[C@H]1CN(C)C(=O)CN(C)C`, the relative growth was inactive: 1.01.

Regarding `C[C@@H](NC(=O)C[C@H]1CC[C@H](NC(=O)CN2CCOCC2)[C@H](CO)O1)c1ccccc1`, the relative growth was inactive: 0.995.

`CC(C)CC#Cc1ccc2c(c1)O[C@H](CN(C)C(=O)Cc1ccncc1)[C@H](C)CN([C@H](C)CO)S2(=O)=O`: the relative growth is inactive: 0.931.

In the case of `C[C@@H]1CN([C@H](C)CO)C(=O)c2cc(NC(=O)c3ccccc3)ccc2O[C@@H](C)CCCCO[C@H]1CN(C)Cc1ccc(C(F)(F)F)cc1`, the relative growth is inactive: 1.03.

As for `C[C@H]1CN([C@@H](C)CO)C(=O)c2cc(NC(=O)Nc3cccc4ccccc34)ccc2O[C@@H]1CN(C)Cc1ccccc1`, the relative growth was inactive: 0.991.

Consider `C[C@@H]1CN([C@H](C)CO)C(=O)c2cc(NC(=O)Cc3ccccc3)ccc2O[C@@H](C)CCCCO[C@@H]1CN(C)C(=O)CCC(F)(F)F`, for which the relative growth was inactive: 0.993.

Consider `CCOC(=O)c1ccc(CNS(=O)(=O)c2ccc(S(=O)(=O)N3CCOCC3)cc2)o1`, for which the relative growth is inactive: 0.997.

For `NCC[C@H]1CC[C@H](NC(=O)NC2CCCCC2)[C@@H](CO)O1`, the relative growth is inactive: 0.995.

Take `C[C@@H]1CN([C@@H](C)CO)C(=O)c2cccc(NC(=O)C3CCOCC3)c2O[C@@H]1CN(C)S(=O)(=O)c1cccs1`: the relative growth is inactive: 0.986.

Take `COc1ccc(C#Cc2ccc3c(c2)O[C@@H](CN(C)S(=O)(=O)c2ccccc2F)[C@@H](C)CN([C@@H](C)CO)S3(=O)=O)cc1`: the relative growth is inactive: 1.04.

On to `C[C@@H]1CCCCO[C@@H](CN(C)Cc2ccncc2)[C@@H](C)CN([C@@H](C)CO)C(=O)c2cc(NC(=O)NC3CCCCC3)ccc2O1`, for which the relative growth is inactive: 0.997.

For `C[C@H]1CCCCO[C@@H](CN(C)CC2CCCCC2)[C@@H](C)CN([C@@H](C)CO)C(=O)c2cc(NC(=O)Cc3ccccc3)ccc2O1`, the relative growth is inactive: 1.02.

In the case of `C[C@H](CO)N1C[C@H](C)[C@@H](CN(C)C(=O)c2ccccc2)OCCCC[C@H](C)Oc2ccc(NC(=O)CCC(F)(F)F)cc2C1=O`, the relative growth is inactive: 0.99.

`Cl.Nc1ccc(N=Nc2ccccc2)c(N)n1`: the relative growth was inactive: 1.01.

`CO[C@@H]1CN(C)C(=O)c2cc(NC(=O)C3CCOCC3)ccc2OC[C@H](C)N(Cc2cccnc2)C[C@H]1C`: the relative growth was inactive: 0.982.

For `COc1ccc(S(=O)(=O)N2C[C@H](O)COC[C@H]3O[C@@H](CC(=O)N[C@@H]4CCN(Cc5ccccc5)C4)CC[C@@H]32)cc1`, the relative growth was inactive: 1.05.

As to `O=C(CN1C(=O)c2cccc3cccc(c23)C1=O)N1CCN(CCN2C(=O)[C@@H]3[C@@H](C2=O)[C@@H]2C=C[C@@H]3C2)CC1`, the relative growth is inactive: 0.993.

Consider `C[C@H]1CN([C@@H](C)CO)C(=O)c2cc(NS(=O)(=O)c3cn(C)cn3)ccc2O[C@H]1CN(C)Cc1ccncc1`, for which the relative growth is inactive: 1.01.

As for `COc1ccc(NC(=O)N(C)C[C@@H]2OCCCC[C@@H](C)Oc3ccc(NS(=O)(=O)c4ccc(Cl)cc4)cc3C(=O)N([C@@H](C)CO)C[C@H]2C)cc1`, the relative growth is inactive: 1.01.

In the case of `C[C@@H]1CCCCO[C@H](CN(C)C(=O)Nc2ccc(F)cc2)[C@H](C)CN([C@@H](C)CO)C(=O)c2cc(NS(=O)(=O)c3cccs3)ccc2O1`, the relative growth is inactive: 1.06.

As for `CC12CCC(=O)C=C1CCC1C2C(O)CC2(C)C1CCC2(O)C(=O)COC(=O)CCC(=O)O` (configuration not stated), the relative growth was inactive: 0.961.

As to `Nc1c2ccccc2nc2ccccc12`, the relative growth was active: 0.0461.

On to `C[C@@H]1CN([C@H](C)CO)C(=O)c2cccc(NC(=O)CCCCCC(=O)Nc3ccccc3N)c2O[C@H]1CN(C)S(C)(=O)=O`, for which the relative growth was inactive: 1.01.

Regarding `Cc1noc(C)c1S(=O)(=O)N(C)C[C@H]1OCCCC[C@@H](C)Oc2ccc(N(C)C)cc2C(=O)N([C@H](C)CO)C[C@@H]1C`, the relative growth is inactive: 1.01.

On to `C[C@H]1CN([C@@H](C)CO)C(=O)CCCn2nncc2CO[C@H]1CN(C)S(=O)(=O)c1ccc(-n2cccn2)cc1`, for which the relative growth is inactive: 1.02.

In the case of `C[C@H](CO)N1C[C@H](C)[C@H](CN(C)C(=O)Nc2ccccc2)Oc2ccc(NC(=O)Nc3cccc4ccccc34)cc2C1=O`, the relative growth was inactive: 1.01.

`C[C@@H](CO)N1CC[C@H](CN(C)Cc2ccc(Oc3ccccc3)cc2)Oc2c(NC(=O)c3ccncc3)cccc2C1=O`: the relative growth is inactive: 1.02.

`NC(=O)c1cc[n+](CC2=C(C(=O)[O-])N3C(=O)C(NC(=O)Cc4cccs4)C3SC2)cc1` (configuration not stated): the relative growth is inactive: 0.634.

Regarding `Cc1noc(C)c1S(=O)(=O)Nc1ccc2c(c1)C(=O)N([C@@H](C)CO)C[C@@H](C)[C@H](CN(C)S(C)(=O)=O)OCCCC[C@@H](C)O2`, the relative growth was inactive: 0.993.

Turning to `Cc1ccc(S(=O)(=O)Nc2ccc3c(c2)C(=O)N([C@H](C)CO)C[C@@H](C)[C@H](CN(C)C(=O)c2ccccc2)OCCCC[C@@H](C)O3)cc1`, the relative growth is inactive: 1.
